Measured values reported in the supplement of paper PMC8728848.
The other results are listed elsewhere or left out.

What was measured:
Test in all cases: glycan array binding signal (z-score within array); higher = stronger binding
Conditions in all cases: glycan notation: IUPAC condensed, linker removed
[1] = biological target: GlcNAc(b1-3)Gal(b1-4)GlcNAc(b1-3)Gal(b1-4)GlcNAc(b1-3)Gal(b1-4)GlcNAc(b1-3)Gal(b1-4)GlcNAc(b1-2)Man(a1-3)[GlcNAc(b1-3)Gal(b1-4)GlcNAc(b1-3)Gal(b1-4)GlcNAc(b1-3)Gal(b1-4)GlcNAc(b1-3)Gal(b1-4)GlcNAc(b1-2)Man(a1-6)]Man(b1-4)GlcNAc(b1-4)[Fuc(a1-6)]GlcNAc
In short: (§1)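 Glycan array data came from 3228 arrays in the Consortium for Functional Glycomics database, and only arrays with an available protein sequence were kept. Glycan names were put into IUPAC-condensed notation, and columns mapping to the same glycan were averaged. The binding signal is a within-array Z-score, averaged across arrays of one protein sequence run at different concentrations or buffers and across linkers. A negative Z-score can be read as non-binding.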

[2] = biological target: GlcNAc(b1-3)Gal(b1-4)GlcNAc(b1-3)Gal(b1-4)GlcNAc(b1-3)Gal(b1-4)GlcNAc(b1-3)Gal(b1-4)GlcNAc(b1-2)[GlcNAc(b1-3)Gal(b1-4)GlcNAc(b1-3)Gal(b1-4)GlcNAc(b1-3)Gal(b1-4)GlcNAc(b1-3)Gal(b1-4)GlcNAc(b1-6)]Man(a1-6)[GlcNAc(b1-3)Gal(b1-4)GlcNAc(b1-3)Gal(b1-4)GlcNAc(b1-3)Gal(b1-4)GlcNAc(b1-3)Gal(b1-4)GlcNAc(b1-2)Man(a1-3)]Man(b1-4)GlcNAc(b1-4)[Fuc(a1-6)]GlcNAc
In short: as §1

[3] = biological target: GlcNAc(b1-3)Gal(b1-4)GlcNAc(b1-3)Gal(b1-4)GlcNAc(b1-3)GalNAc
In short: as §1

[4] = biological target: GlcNAc(b1-3)Gal(b1-4)GlcNAc(b1-3)GalNAc
In short: as §1

[5] = biological target: GlcNAc(b1-3)Gal(b1-4)GlcNAc(b1-3)[GlcNAc(b1-3)Gal(b1-4)GlcNAc(b1-3)]GalNAc
In short: as §1

[6] = biological target: GlcNAc(b1-3)Gal(b1-4)GlcNAc(b1-6)[Gal(b1-3)]GalNAc
In short: as §1

[7] = biological target: GlcNAc(b1-3)Gal(b1-4)GlcNAc(b1-6)[GlcNAc(b1-3)Gal(b1-3)]GalNAc
In short: as §1

[8] = biological target: GlcNAc(b1-3)Gal(b1-4)GlcNAc(b1-6)[GlcNAc(b1-3)]Gal(b1-4)GlcNAc
In short: as §1

GlcNAc(b1-3)GalNAc = biological target: GlcNAc(b1-3)GalNAc
In short: as §1

GlcNAc(b1-3)Man = biological target: GlcNAc(b1-3)Man
In short: as §1

[9] = biological target: GlcNAc(b1-3)[GlcNAc(b1-4)][GlcNAc(b1-6)]GlcNAc
In short: as §1

[10] = biological target: GlcNAc(b1-3)[GlcNAc(b1-6)]Gal(b1-4)GlcNAc
In short: as §1

[11] = biological target: GlcNAc(b1-3)[GlcNAc(b1-6)]GalNAc
In short: as §1

[12] = biological target: GlcNAc(b1-3)[GlcNAc(b1-6)]GlcNAc(b1-4)GlcNAc
In short: as §1

[13] = biological target: GlcNAc(b1-4)Gal(b1-4)GlcNAc
In short: as §1

GlcNAc(b1-4)GlcNAc = biological target: GlcNAc(b1-4)GlcNAc
In short: as §1

[14] = biological target: GlcNAc(b1-4)GlcNAc(b1-4)GlcNAc
In short: as §1

[15] = biological target: GlcNAc(b1-4)GlcNAc(b1-4)GlcNAc(b1-4)GlcNAc(b1-4)GlcNAc
In short: as §1

[16] = biological target: GlcNAc(b1-4)GlcNAc(b1-4)GlcNAc(b1-4)GlcNAc(b1-4)GlcNAc(b1-4)GlcNAc
In short: as §1

[17] = biological target: GlcNAc(b1-4)[GlcNAc(b1-6)]GalNAc
In short: as §1

[18] = biological target: GlcNAc(b1-6)Gal(b1-4)GlcNAc
In short: as §1

GlcNAc(b1-6)GalNAc = biological target: GlcNAc(b1-6)GalNAc
In short: as §1

[19] = biological target: GlcNAc6S(b1-3)Gal(b1-4)GlcNAc
In short: as §1

Kdn(a2-3)Gal(b1-3)GalNAc = biological target: Kdn(a2-3)Gal(b1-3)GalNAc
In short: as §1

Kdn(a2-3)Gal(b1-3)GlcNAc = biological target: Kdn(a2-3)Gal(b1-3)GlcNAc
In short: as §1

Kdn(a2-3)Gal(b1-4)Glc = biological target: Kdn(a2-3)Gal(b1-4)Glc
In short: as §1

Kdn(a2-3)Gal(b1-4)GlcNAc = biological target: Kdn(a2-3)Gal(b1-4)GlcNAc
In short: as §1

[20] = biological target: Kdn(a2-3)Gal(b1-4)[Fuc(a1-3)]GlcNAc
In short: as §1

Kdn(a2-6)Gal(b1-4)GlcNAc = biological target: Kdn(a2-6)Gal(b1-4)GlcNAc
In short: as §1

[21] = biological target: Man(a1-2)Man(a1-2)Man(a1-3)Man
In short: as §1

[22] = biological target: Man(a1-2)Man(a1-2)Man(a1-6)[Man(a1-3)]Man
In short: as §1

Man(a1-2)Man(a1-3)Man = biological target: Man(a1-2)Man(a1-3)Man
In short: as §1

[23] = biological target: Man(a1-2)Man(a1-3)[Man(a1-2)Man(a1-6)]Man
In short: as §1

[24] = biological target: Man(a1-2)Man(a1-3)[Man(a1-2)Man(a1-6)]Man(a1-6)[Man(a1-2)Man(a1-2)Man(a1-3)]Man
In short: as §1

[25] = biological target: Man(a1-2)Man(a1-3)[Man(a1-2)Man(a1-6)]Man(a1-6)[Man(a1-2)Man(a1-2)Man(a1-3)]Man(b1-4)GlcNAc(b1-4)GlcNAc
In short: as §1

[26] = biological target: Man(a1-2)Man(a1-3)[Man(a1-2)Man(a1-6)]Man(a1-6)[Man(a1-3)[Man(a1-6)]Man(a1-6)]Man(b1-4)GlcNAc(b1-4)GlcNAc
In short: as §1

[27] = biological target: Man(a1-2)Man(a1-3)[Man(a1-6)]Man(a1-6)[Man(a1-2)Man(a1-3)]Man(b1-4)GlcNAc(b1-4)GlcNAc
In short: as §1

[28] = biological target: Man(a1-2)Man(a1-6)[Man(a1-3)]Man(a1-6)[Man(a1-2)Man(a1-2)Man(a1-3)]Man
In short: as §1

B1: AMA (Arum maculatun) (protein)
chain: MAKLLLLLLLPAIVGLAVPRSAAAVGSNYMLSGETLNTDGRLTNGELTLIMQVDCNLVLYHGGWQSNTANNGRDCKLTLTDFGELVIKSGTGSTVWSSGSKQSMKGNYAAVVHPEGRLVIYGPSVFKINPSGAGLNGLPLRNIPLTNNMLFSGQVLYGDGTLSARNHKLVMQGDCNMVLYGGKYGWQSNTHGNGKYCFAMLTHKGELVIRDDDFKSVWSSKSSSKQGDYVFILQDDSLAIIYGPAVFSTGSKKMISMVTN
Question: Which results are given for B1?
Answer: glycan array binding signal (z-score) [1]: 0.572; glycan array binding signal (z-score) [2]: 0.094; glycan array binding signal (z-score) [3]: -0.212; glycan array binding signal (z-score) [4]: -0.218; glycan array binding signal (z-score) [5]: -0.209; glycan array binding signal (z-score) [6]: -0.211; glycan array binding signal (z-score) [7]: -0.217; glycan array binding signal (z-score) [8]: -0.207; glycan array binding signal (z-score) (GlcNAc(b1-3)GalNAc): -0.22; glycan array binding signal (z-score) (GlcNAc(b1-3)Man): -0.213; glycan array binding signal (z-score) [9]: -0.217; glycan array binding signal (z-score) [10]: -0.219; glycan array binding signal (z-score) [11]: -0.206; glycan array binding signal (z-score) [12]: -0.221; glycan array binding signal (z-score) [13]: -0.214; glycan array binding signal (z-score) (GlcNAc(b1-4)GlcNAc): -0.179; glycan array binding signal (z-score) [14]: -0.148; glycan array binding signal (z-score) [15]: -0.169; glycan array binding signal (z-score) [16]: -0.166; glycan array binding signal (z-score) [17]: -0.215; glycan array binding signal (z-score) [18]: -0.216; glycan array binding signal (z-score) (GlcNAc(b1-6)GalNAc): -0.21; glycan array binding signal (z-score) [19]: -0.202; glycan array binding signal (z-score) (Kdn(a2-3)Gal(b1-3)GalNAc): -0.207; glycan array binding signal (z-score) (Kdn(a2-3)Gal(b1-3)GlcNAc): -0.221; glycan array binding signal (z-score) (Kdn(a2-3)Gal(b1-4)Glc): -0.209; glycan array binding signal (z-score) (Kdn(a2-3)Gal(b1-4)GlcNAc): -0.213; glycan array binding signal (z-score) [20]: -0.207; glycan array binding signal (z-score) (Kdn(a2-6)Gal(b1-4)GlcNAc): -0.207; glycan array binding signal (z-score) [21]: -0.21; glycan array binding signal (z-score) [22]: -0.208; glycan array binding signal (z-score) (Man(a1-2)Man(a1-3)Man): -0.211; glycan array binding signal (z-score) [23]: -0.221; glycan array binding signal (z-score) [24]: -0.215; glycan array binding signal (z-score) [25]: 1.48; glycan array binding signal (z-score) [26]: 3.87; glycan array binding signal (z-score) [27]: 3.3; glycan array binding signal (z-score) [28]: -0.213
